Results are given in words; binding and its absence hold for the method and conditions named. In cells and extracts the contact can be indirect. Some entries that bind do so weakly or less than the wild type. Sequences can lack the tags named with a protein.
How the values were obtained:
[1] = target: T1, Flag-tagged human CARD9, wild type (human) (UniProt Q9H257); test: co-IP; as the unstimulated co-IP, but transfected HEK293T cells treated with 200 ng/ml PMA for 30 minutes before lysis and anti-Flag immunoprecipitation
T1 sequence: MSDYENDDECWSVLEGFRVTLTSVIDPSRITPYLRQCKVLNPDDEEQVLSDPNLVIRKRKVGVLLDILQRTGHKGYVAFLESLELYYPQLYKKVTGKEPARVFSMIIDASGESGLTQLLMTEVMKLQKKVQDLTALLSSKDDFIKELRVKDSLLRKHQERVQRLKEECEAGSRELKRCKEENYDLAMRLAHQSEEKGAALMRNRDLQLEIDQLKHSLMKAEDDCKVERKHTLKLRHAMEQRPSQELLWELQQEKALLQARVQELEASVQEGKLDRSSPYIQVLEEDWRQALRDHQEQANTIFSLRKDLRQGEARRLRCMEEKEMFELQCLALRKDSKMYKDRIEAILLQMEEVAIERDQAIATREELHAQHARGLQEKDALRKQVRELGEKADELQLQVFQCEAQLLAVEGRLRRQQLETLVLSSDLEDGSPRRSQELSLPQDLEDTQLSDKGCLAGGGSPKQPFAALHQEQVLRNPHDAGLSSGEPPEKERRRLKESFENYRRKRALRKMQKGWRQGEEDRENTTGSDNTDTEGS

Amino acid sequences for entries named in this document (tags omitted).
UniProt Q9UDY8: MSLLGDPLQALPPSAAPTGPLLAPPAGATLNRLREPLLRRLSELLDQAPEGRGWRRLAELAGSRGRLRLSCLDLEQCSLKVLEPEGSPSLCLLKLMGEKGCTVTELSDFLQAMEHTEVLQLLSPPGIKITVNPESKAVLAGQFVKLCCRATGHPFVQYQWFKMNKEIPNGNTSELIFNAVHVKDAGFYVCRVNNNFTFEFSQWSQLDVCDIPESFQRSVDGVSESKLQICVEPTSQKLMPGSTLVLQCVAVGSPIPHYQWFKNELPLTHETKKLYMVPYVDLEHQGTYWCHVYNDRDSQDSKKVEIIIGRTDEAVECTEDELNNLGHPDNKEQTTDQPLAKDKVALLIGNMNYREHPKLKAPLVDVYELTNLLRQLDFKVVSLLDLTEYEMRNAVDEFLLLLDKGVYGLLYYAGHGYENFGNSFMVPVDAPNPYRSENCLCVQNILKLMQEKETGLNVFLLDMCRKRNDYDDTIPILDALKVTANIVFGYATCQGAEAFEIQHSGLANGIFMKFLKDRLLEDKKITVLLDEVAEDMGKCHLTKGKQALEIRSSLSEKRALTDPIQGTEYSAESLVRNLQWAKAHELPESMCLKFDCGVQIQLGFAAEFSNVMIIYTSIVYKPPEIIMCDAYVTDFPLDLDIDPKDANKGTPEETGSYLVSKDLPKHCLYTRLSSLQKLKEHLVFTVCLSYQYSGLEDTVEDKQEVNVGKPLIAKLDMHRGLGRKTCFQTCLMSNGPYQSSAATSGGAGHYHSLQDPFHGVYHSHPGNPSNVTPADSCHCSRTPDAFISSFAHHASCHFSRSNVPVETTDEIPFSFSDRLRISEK

[2] = target: T2, Flag-tagged human CARD9 R70W (human) (UniProt Q9H257); test: co-IP; unstimulated HEK293T co-transfected with MALT1, E-tagged BCL10 and a Flag-tagged CARD9 construct; CARD9 precipitated with anti-Flag antibody and protein G magnetic Dynabeads in IP buffer (25 mM HEPES pH 7.5, 150 mM NaCl, 0.2% NP-40, 10% glycerol); BCL10 detected by anti-E-tag, MALT1 by anti-MALT1
T2 sequence: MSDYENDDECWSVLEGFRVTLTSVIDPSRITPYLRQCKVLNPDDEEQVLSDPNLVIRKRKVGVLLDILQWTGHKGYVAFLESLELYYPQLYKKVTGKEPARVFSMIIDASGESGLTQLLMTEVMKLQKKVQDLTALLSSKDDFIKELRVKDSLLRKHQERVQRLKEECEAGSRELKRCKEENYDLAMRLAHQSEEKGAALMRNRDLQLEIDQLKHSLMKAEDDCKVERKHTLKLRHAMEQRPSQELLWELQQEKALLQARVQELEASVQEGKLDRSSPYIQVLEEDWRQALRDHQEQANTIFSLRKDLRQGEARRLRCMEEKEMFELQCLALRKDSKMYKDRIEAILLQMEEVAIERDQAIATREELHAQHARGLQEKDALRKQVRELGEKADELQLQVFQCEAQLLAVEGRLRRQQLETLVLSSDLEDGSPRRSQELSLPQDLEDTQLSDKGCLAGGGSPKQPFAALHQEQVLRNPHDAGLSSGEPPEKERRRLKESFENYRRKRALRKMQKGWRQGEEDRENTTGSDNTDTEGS

[3] = target: T3, Flag-tagged human CARD9 L213LI (gain-of-function mutant) (human) (UniProt Q9H257); test: as above
T3 sequence: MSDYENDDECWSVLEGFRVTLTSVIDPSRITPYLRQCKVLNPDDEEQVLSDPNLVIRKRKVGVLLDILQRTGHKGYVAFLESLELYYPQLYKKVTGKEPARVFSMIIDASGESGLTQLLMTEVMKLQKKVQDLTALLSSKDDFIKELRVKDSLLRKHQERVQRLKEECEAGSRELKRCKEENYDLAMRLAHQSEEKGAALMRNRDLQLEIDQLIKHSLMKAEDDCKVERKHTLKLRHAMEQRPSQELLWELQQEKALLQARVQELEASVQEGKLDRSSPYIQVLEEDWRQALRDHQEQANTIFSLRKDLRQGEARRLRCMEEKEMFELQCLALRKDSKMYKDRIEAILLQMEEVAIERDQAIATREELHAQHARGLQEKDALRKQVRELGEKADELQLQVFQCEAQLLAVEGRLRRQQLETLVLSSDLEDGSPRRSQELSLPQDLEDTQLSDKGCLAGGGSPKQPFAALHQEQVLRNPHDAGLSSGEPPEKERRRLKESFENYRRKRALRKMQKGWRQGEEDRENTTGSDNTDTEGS

[4] = target: T4, Flag-tagged human CARD9 R70W/L213LI double mutant (human) (UniProt Q9H257); test: as above
T4 sequence: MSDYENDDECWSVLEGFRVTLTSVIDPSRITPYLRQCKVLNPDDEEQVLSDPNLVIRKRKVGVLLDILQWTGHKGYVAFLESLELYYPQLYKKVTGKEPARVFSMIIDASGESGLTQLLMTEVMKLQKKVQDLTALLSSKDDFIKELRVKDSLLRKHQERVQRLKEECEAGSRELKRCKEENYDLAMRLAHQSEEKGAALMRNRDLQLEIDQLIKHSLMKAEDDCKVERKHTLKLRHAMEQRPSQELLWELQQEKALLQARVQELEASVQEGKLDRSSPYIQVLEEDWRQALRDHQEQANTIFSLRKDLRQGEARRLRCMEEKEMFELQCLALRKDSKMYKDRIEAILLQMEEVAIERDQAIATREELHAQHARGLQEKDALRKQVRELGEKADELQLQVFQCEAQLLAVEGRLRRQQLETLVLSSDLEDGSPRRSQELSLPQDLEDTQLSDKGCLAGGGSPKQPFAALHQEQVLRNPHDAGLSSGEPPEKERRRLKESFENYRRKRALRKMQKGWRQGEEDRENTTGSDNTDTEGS

[5] = target: T1, Flag-tagged human CARD9, wild type (human); test: condition: only without upstream activation (no PMA); co-IP; unstimulated HEK293T co-transfected with MALT1, E-tagged BCL10 and a Flag-tagged CARD9 construct; CARD9 precipitated with anti-Flag antibody and protein G magnetic Dynabeads in IP buffer (25 mM HEPES pH 7.5, 150 mM NaCl, 0.2% NP-40, 10% glycerol); BCL10 detected by anti-E-tag, MALT1 by anti-MALT1
[6] = target: T5, Flag-tagged human CARD9, wild type (human), Q9H257; test: co-IP; as the unstimulated co-IP, but transfected HEK293T cells treated with 200 ng/ml PMA for 30 minutes before lysis and anti-Flag immunoprecipitation; conditions: remark: other sources report otherwise
T5 chain: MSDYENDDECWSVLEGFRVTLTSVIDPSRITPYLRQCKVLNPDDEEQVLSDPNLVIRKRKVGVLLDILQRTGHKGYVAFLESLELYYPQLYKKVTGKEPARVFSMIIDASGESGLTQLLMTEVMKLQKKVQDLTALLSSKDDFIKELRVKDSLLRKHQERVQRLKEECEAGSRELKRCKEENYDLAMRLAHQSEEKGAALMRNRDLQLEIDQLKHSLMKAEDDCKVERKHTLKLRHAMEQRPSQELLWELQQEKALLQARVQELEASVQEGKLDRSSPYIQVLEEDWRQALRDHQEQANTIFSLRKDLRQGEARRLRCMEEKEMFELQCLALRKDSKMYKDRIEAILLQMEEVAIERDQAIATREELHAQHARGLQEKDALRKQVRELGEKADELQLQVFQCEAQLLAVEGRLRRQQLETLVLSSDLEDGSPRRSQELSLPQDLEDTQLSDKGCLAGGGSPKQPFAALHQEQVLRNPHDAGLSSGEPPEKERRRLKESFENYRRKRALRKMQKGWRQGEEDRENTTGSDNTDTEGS

human MALT1 (from UniProt Q9UDY8 1-824)
binding [1]: binds | binding [2]: no binding | binding [3]: binds | binding [4]: no binding | binding [5]: no binding

B1: E-tagged human BCL10, O95999 1-233 (protein)
chain: MEPTAPSLTEEDLTEVKKDALENLRVYLCEKIIAERHFDHLRAKKILSREDTEEISCRTSSRKRAGKLLDYLQENPKGLDTLVESIRREKTQNFLIQKITDEVLKLRNIKLEHLKGLKCSSCEPFPDGATNNLSRSNSDESNFSEKLRASTVMYHPEGESSTTPFFSTNSSLNLPVLEVGRTENTIFSSTTLPRPGDPGAPPLPPDLQLEEEGTCANSSEMFLPLRSRTVSRQ
binding [6]: binds

B2: E-tagged human BCL10 (protein, UniProt O95999 1-233)
chain: MEPTAPSLTEEDLTEVKKDALENLRVYLCEKIIAERHFDHLRAKKILSREDTEEISCRTSSRKRAGKLLDYLQENPKGLDTLVESIRREKTQNFLIQKITDEVLKLRNIKLEHLKGLKCSSCEPFPDGATNNLSRSNSDESNFSEKLRASTVMYHPEGESSTTPFFSTNSSLNLPVLEVGRTENTIFSSTTLPRPGDPGAPPLPPDLQLEEEGTCANSSEMFLPLRSRTVSRQ
binding [2]: no binding | binding [3]: binds | binding [4]: no binding | binding [5]: no binding

From article PMC6220056
